This is one part of the list. Shown are side measurements of this screen, not its main read-out; they come without a call. Compounds called inactive in the main read-out are mostly missing here.

103 molecules from PubChem BioAssay AID434955 (Southern Research Specialized Biocontainment Screening …, 2010) can be followed below.

This test can be described thus: beta-lactam sensitization of Mtb H37Rv, H37Rv (AID 434955).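 Also: growth measured after seven days incubation then overnight dye step; 0% = bacteria only wells and 100% = bacteria with antibiotic.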 The following applies: M. tuberculosis H37Rv growth with meropenem, percent inhibition; measured here: primary screen without meropenem; at 25 µM.
In general, inhibition refers to the drop in the measured response relative to a control, in per cent. For `Cc1cccc(NC(=O)c2ccc(S(=O)(=O)N(C)CC3CCCO3)cc2)c1C` (stereo not drawn), the inhibition turned out to be 4.56%. The same measure for `O=C(OCC(=O)N1CCN(C(=O)c2ccco2)CC1)c1ccc(Cl)c(Cl)c1`: 78.9%; for `CCCCNC(=O)c1onc(CSc2ccc(OC)cc2)c1C(=O)O`: 30.5%.

For the molecule `O=C(Cn1cnc2c(nnn2Cc2ccc(Cl)cc2)c1=O)NCC1CCCO1` (stereo not drawn), the inhibition was 0.8%. The same measure for `Cc1cc(C)cc(SCc2noc(C(=O)NC(C)C)c2C(=O)O)c1`: 1.24%; for `CCOC(=O)c1c(C)c(C(=O)N2CCCCCC2)c(C)n1C`: 0.38%. The same measure for `CC(CN1CCC(n2nccc2NC(=O)c2ccccc2Cl)CC1)c1ccccc1` (stereo not drawn): 4.63%; for `COc1cc(NS(=O)(=O)c2ccc3c(c2)C(C)(C)C(=O)N3C)cc(OC)c1`: -6.62%; for `CC(=O)C1=C(C)NC(SCC(=O)c2ccc(Cl)cc2)=C(C#N)C1CC(C)C` (stereo not drawn): 20.6%. With `COC(=O)c1sc(-c2ccc(C(C)(C)C)cc2)cc1NC(=O)CCC(=O)O`, the inhibition was 34.1%. Regarding `Cc1c(C2N3CC4(C)CN2CC(C)(C3)C4=O)c2ccccc2n1C` (stereo not drawn), the inhibition came to 0.81%. Take `NCC(=O)c1cccc2ccc[n+]([O-])c12`: the inhibition was determined as 5.02%.

Turning to `CN(c1ccccc1)S(=O)(=O)c1ccc(NC(=O)COc2ccccc2)cc1`, the inhibition was determined as 1.3%. Take `O=C(CC(Sc1ccc(Br)cc1)C(=O)O)c1ccc(Br)cc1` (stereo not drawn): the inhibition turned out to be 37.9%. The same measure for `C/C(Cc1ccccc1)=N\NC(=O)c1cccnc1`: -7.73%; for `CCc1ccc(C(=O)COC(=O)CNC(=O)c2ccc(Br)o2)cc1`: -2.89%; for `CCc1cc(=O)oc2c(C)c(O[C@@H]3O[C@H](CO)[C@@H](O)[C@H](O)[C@H]3O)ccc12`: -4.26%. As to `Cc1ccc(Sc2nnc(Cc3ccccc3)c3ccccc23)cc1`, the inhibition was -0.87%. For `O=C(CSc1nnc(CNC(=O)c2ccccc2)o1)Nc1ccc2c(c1)OCCO2`, the inhibition was 5%. With `Cc1cc(C)cc(NC(=O)N2CCC(NC(=O)c3ccc(F)cc3)CC2)c1` the figure was -1.7%; with `CN1CCN(c2ccccc2NC(=O)c2ccc(-c3ccc(Br)cc3)o2)CC1`, 10.9%.

As to `CC1CN(c2nc3c(c(=O)[nH]c(=O)n3C)n2Cc2ccccc2F)CC(C)O1` (stereo not drawn), the inhibition worked out at 4.11%. With `O=C1c2[nH]nc(-c3ccccc3O)c2C(c2cccc(Cl)c2)N1Cc1ccco1` (stereo not drawn) the figure was 2.54%; with `CCCNc1c(NS(=O)(=O)c2c(F)c(F)c(F)c(F)c2F)c(=O)oc2ccccc12`, 3.8%; with `COC(=O)C1=CN(C)C=C(C(=O)OC)C1c1ccc(Cl)cc1Cl`, 0.81%. For `Cn1c(=O)c(=O)n(C)c2cc(S(=O)(=O)N3CCc4ccccc43)ccc21`, the inhibition was -4.35%. On to `COc1cccc(CNC(=O)CCC2CCCN(C(=O)c3ccc(F)c(Cl)c3)C2)c1` (stereo not drawn), for which the inhibition was found to be 10.5%.

For `CCN(CC)C(=O)C(C)N(C#N)c1nc(SC)nc(N(C)C)n1` (stereo not drawn), the inhibition worked out at 3.55%. With `CCOC(=O)c1oc2ccccc2c1NC(=O)c1cc(OC)cc(OC)c1` the figure was 4.52%; with `COc1ccc(N(CC(=O)NC2CCCCCC2)S(=O)(=O)c2ccc(C)cc2)cc1OC`, 0.68%.

Turning to `Cc1[nH]c(C)c(S(=O)(=O)N2CCN(c3ccccc3)CC2)c1C(=O)N1CCCCC1`, the inhibition was 0.85%. On to `CCN(Cc1ccccc1)S(=O)(=O)c1c[nH]c(C(=O)OC)c1`, for which the inhibition is -8.72%. For the molecule `COc1ccc(C(=O)N2CCN(c3ccc([N+](=O)[O-])c(NCCc4ccc(OC)c(OC)c4)c3)CC2)cc1`, the inhibition came to 2.65%. The same measure for `CCCC(=O)NC(c1ccccc1Cl)c1c(O)ccc2ccccc12` (stereo not drawn): -2.61%; for `O=C(CN1C(=O)COc2ccccc21)N1CCCc2ccccc21`: -1.64%; for `CN1CCN(c2oc(-c3ccccc3)nc2S(=O)(=O)c2ccc(Br)cc2)CC1`: 11.7%. The same measure for `COC(=O)Cn1ncc2c3ccccc3n(Cc3ccccc3)c2c1=O`: -3.64%; for `COc1cc(OC)c(OC)cc1/C=N/n1c(COc2ccccc2)n[nH]c1=S`: 2.15%. With `Cc1ccc(S(=O)(=O)N(C)c2ccc(OCC(=O)Nc3nc4c(ccc5ccccc54)s3)cc2)cc1`, the inhibition is -3.14%. Take `c1ccc(-c2cc(N3CCOCC3)nc3ccccc23)cc1`: the inhibition worked out at 16.1%.

Turning to `Nn1c(SCc2nc3ccccc3[nH]2)nnc1-c1cccnc1`, the inhibition is -4.89%. Regarding `O=C1S/C(=C\C=C\c2ccco2)C(=O)N1c1ccccc1`, the inhibition was determined as 27.6%. As for `COc1cc2c(cc1OC)C(C(=O)Nc1ccccn1)C(c1cccnc1)N(C)C2=O` (stereo not drawn), the inhibition is -0.17%. With `S=c1[nH]nc(C2CCCCC2)n1/N=C/c1ccc(Cl)cc1`, the inhibition amounted to 7.73%.

Consider `CCc1nnc(NC(=O)CSc2nnc(C)n2CC2CCCO2)s1` (stereo not drawn), for which the inhibition came to 0.94%. As to `CCc1ccc(C(C)(O)C(CN2CCOCC2)c2ccccc2)cc1` (stereo not drawn), the inhibition turned out to be 1.19%. Regarding `O=C(Nc1ccc(F)cc1)C1CCCN(S(=O)(=O)c2ccc3[nH]c(=O)ccc3c2)C1` (stereo not drawn), the inhibition is -10.1%.

As to `CC(C)(C)c1ccc(C(=O)NNC(=O)C(=O)N2CCCCC2)cc1`, the inhibition amounted to 41%. Take `O=C(CN1C(=O)/C(=C/c2ccccc2Cl)SC1=S)NC1CCS(=O)(=O)C1` (stereo not drawn): the inhibition amounted to 1.71%. As to `Cc1cn([C@@H](CCCCNC(=O)OC(C)(C)C)C(=O)NCCCCCCCCCCC(=O)N2CCN(C(=O)OC(C)(C)C)CC2)nn1`, the inhibition is -1.06%. Consider `COC(=O)C(NC(=O)c1ccccc1C)(Nc1ncc(S(=O)(=O)c2ccc([N+](=O)[O-])cc2)s1)C(F)(F)F` (stereo not drawn), for which the inhibition amounted to 80.9%. With `CCOc1ccc(N/C=C/C(=O)c2ccccc2)c([N+](=O)[O-])c1`, the inhibition was -1.71%. For `Cc1oc2c(CN3CCCC3)c(O)ccc2c(=O)c1Oc1ccccc1Br`, the inhibition is -2.52%. Consider `Cc1cc(NC(=O)CN2C(=O)c3ccccc3S2(=O)=O)no1`, for which the inhibition worked out at 7.34%. `Cc1ccc(SCC(=O)NC2CCCCCC2)cc1`: the inhibition is 12.7%. The same measure for `COc1ccc(C(=O)O)cc1NC(=S)NC(=O)CSc1ccc(Cl)cc1`: -1.03%; for `COc1ccc(-n2c(SCC(=O)N3CCOCC3)nc3ccccc3c2=O)cc1`: -7.37%; for `CCSc1nnc(Cn2c(=O)sc3ccccc32)n1-c1ccccc1C`: -1.5%. The same measure for `Cc1cc(C(=O)CN2C(=O)CCC2=O)c(C)n1Cc1ccccc1`: 1.95%; for `CCN(C(=O)c1cccc(NC(=O)c2ccccc2)c1)C1CCCCC1`: 3.97%.

In the case of `O=C(CCCN1C(=O)/C(=C/c2ccccc2Cl)SC1=S)NCCCN1CCOCC1`, the inhibition came out at 0.91%. Turning to `COc1ccccc1CNC(=O)c1cc(C2CC2)nc2c1cnn2C(C)C`, the inhibition was found to be 89%.

In the case of `CCn1nc(C)c(C(=O)Nc2cc(Oc3ccc(Cl)cc3)cc([N+](=O)[O-])c2)c1C`, the inhibition worked out at 8.98%. Turning to `COC(=O)c1ccccc1NC(=O)c1ccc(-c2ccc(Br)cc2)o1`, the inhibition was found to be 18.2%.

On to `COc1ccc(CCNC(=O)C2CCCN(S(=O)(=O)c3cc(C)ccc3OC)C2)cc1OC` (stereo not drawn), for which the inhibition is -1.02%. With `Cc1cccc(CN2CCNC2=O)c1`, the inhibition came to 1.68%.

Consider `CC(Oc1ccc(Cl)cc1Cl)C(=O)NCCCCc1ccccc1` (stereo not drawn), for which the inhibition was 30.3%.

`COCC1CCCCN1C(=O)c1ccc2oc(CCc3ccccc3)nc2c1` (stereo not drawn): the inhibition amounted to 2.95%. Consider `C/C(CC(=O)Nc1ccc(Cl)cc1)=N\NC(=O)C(=O)NCCO`, for which the inhibition was -11.9%. The same measure for `Cc1cc2c(=O)n(Cc3ccco3)c(SCC(=O)c3ccc(Cl)s3)nc2s1`: 2.63%. As to `COc1ccc2nc(/N=C/c3c(C)[nH]n(-c4ccc(C)cc4)c3=O)sc2c1`, the inhibition came out at 28.7%. The same measure for `C=CCC1(CC=C)CCCN1C(=O)c1cc(COc2ccccc2SC)on1`: 9.16%; for `CC(C)CCN(C(=O)Nc1ccccc1)C(C)c1cccs1` (stereo not drawn): -9.79%; for `Cc1ccc(S(=O)(=O)Nc2ccccc2C(=O)N2CCN(C)CC2)cc1`: -6.88%.

Take `Cc1ccc2c(C)c(C(=O)Nc3ccc(S(=O)(=O)Nc4onc(C)c4C)cc3)oc2c1`: the inhibition came out at 5.87%.

`O=C(Cc1ccc2c(c1)OCCO2)N1CCN(S(=O)(=O)c2ccccc2C(F)(F)F)CC1`: the inhibition was 6.46%. On to `CCOc1ccc(-c2nnc(-c3ccc(OC)cc3)o2)cc1`, for which the inhibition turned out to be 16.9%. Regarding `Cc1ccc(S(=O)(=O)N2CCC(C(=O)N3CCN(c4ccccn4)CC3)CC2)cc1`, the inhibition is 3.29%. As for `COC(=O)CN1C(=O)CC(C)(C)S(=O)c2ccccc21` (stereo not drawn), the inhibition was -5.73%. As to `O=C(CN(Cc1ccc(Br)cc1)S(=O)(=O)c1ccccc1)NCC1CCCO1` (stereo not drawn), the inhibition came out at 0.67%.

Take `O=C1c2ccccc2C(=O)N1n1c(=O)[nH]c2ccccc2c1=O`: the inhibition stood at 2.08%. With `Cc1ccc(C)c(CN2CCC(CNC(=O)Nc3ccc(F)c(Cl)c3)CC2)c1`, the inhibition was 28.4%. `O=C(c1cc[n+]([O-])cc1)N1CCCC(N2CCN(c3cccc(C(F)(F)F)c3)CC2)C1` (stereo not drawn): the inhibition is 2.34%.

As to `Cc1cc(C(F)(F)F)nc(SCC(=O)Nc2cc(C)on2)n1`, the inhibition stood at 5.08%. For `COc1ccc(N(CC(=O)NCCSC2CCCCC2)S(=O)(=O)c2ccccc2)c(OC)c1`, the inhibition was determined as 0.89%.

For `Cc1cc(C)n(S(=O)(=O)c2ccc(C(C)(C)C)cc2)n1`, the inhibition is -6.26%. For `COc1ccc(C(=O)N(CN2CCCC2=O)c2nccs2)cc1OC`, the inhibition is -7.69%. For `Cn1c(=O)n(CCc2ccccc2)c(=O)c2c1nc1n2CCN1Cc1ccco1`, the inhibition stood at 2.12%. As for `Cc1oc2cc3oc(=O)c(CCC(=O)N(C)CC(=O)O)c(C)c3cc2c1C`, the inhibition is 2.68%.

`CN(/N=C/c1ccncc1)c1cnc2ccccc2n1`: the inhibition stood at 1.96%. In the case of `CCc1nc(N2CCN(C(=O)c3ccco3)CC2)c2oc3ccccc3c2n1`, the inhibition was found to be 2.24%.

For the molecule `O=C(COC(=O)C1=COCCO1)Nc1ccc2c(c1)OCO2`, the inhibition is 30.9%. The same measure for `O=C(c1ccc(Cn2cc([N+](=O)[O-])cn2)o1)N1N=C(C(F)F)CC1(O)C(F)F` (stereo not drawn): -6%; for `CC(C)(C#CC(=O)O)OOC(c1ccccc1)(c1ccccc1)c1ccccc1`: -0.11%. As to `CCN(C(=O)c1cc2c(=O)[nH]c3ccc(C)cc3c2s1)c1cccc(C)c1`, the inhibition came to 5.56%. `O=C(NCc1ccc(F)cc1)c1cc(-c2ccco2)on1`: the inhibition is -2.9%. The same measure for `N#Cc1nc(-c2ccccc2Cl)oc1N1CCN(C(=O)c2ccco2)CC1`: 5.03%; for `Cc1ccc(C2C(N)C(=O)N2c2ccc(C)cc2)cc1` (stereo not drawn): -3.55%; for `Cc1cc2cc(CNC(=O)C(C)Oc3ccccc3)ccc2n1C` (stereo not drawn): 28%. Regarding `CCOC(=O)c1ccc(/[N+]([O-])=C/c2ccccc2)cc1`, the inhibition amounted to 91.2%. Turning to `CCCS(=O)(=O)Nc1ccc(-c2cn3c(n2)SCC3)cc1`, the inhibition worked out at 1.99%. The same measure for `COc1cc(CN2CCN(c3cc(C)ccc3C)CC2)cc([N+](=O)[O-])c1O`: 6.13%; for `O=C(Nc1cccc(Cl)c1Cl)c1ccccc1OCC(=O)N1CCOCC1`: 14.7%.
